The text below walks through data of patent US20200216536A1.

The target in this assay is canine FcRn (UniProtKB-E2ROL6 [FcRn] and UniProtKB-E2RN10 [canine beta-2-microglobulin]) (canine). Put plainly: SPR Biacore 8K, pH 5.5, Fc captured on BSA via SASA tag, FcRn 400 nM.

Certain results were filed several times, with different values. The list is limited to them. There may be further records. Values given together appear to be repeats (runs, samples, wells or individuals); a mean can stand among them.

B1: wild-type canine IgG.B Fc (CH2 and CH3 domains) with SASA tag (Fc fusion, not shown: small tags and cut ends)
chain: APEMLGGPSVFIFPPKPKDTLLIARTPEVTCVVVDLDPEDPEVQISWFVDGKQMQTAKTQPREEQFNGTYRVVSVLPIGHQDWLKGKQFTCKVNNKALPSPIERTISKARGQAHQPSVYVLPPSREELSKNTVSLTCLIKDFFPPDIDVEWQSNGQQEPESKYRTTPPQLDEDGSYFLYSKLSVDKSRWQRGDTFICAVMHEALHNHYTQESLSHSPGK
As for B1, the Kd is 321 nM, 592 nM, 418 nM, 534 nM, 488 nM, 514 nM, 606 nM, 489 nM, 616 nM, 614 nM, 465 nM, 1.13 µM [lines of one column]; the WT KD Avg/Variant KD is 1.76, 0.96, 1.35, 1.06, 1.16, 1.1, 0.93, 0.92, 1.22, 0.5 [lines of one column]; the koff is 1.16, 0.375, 0.185, 0.314, 0.188, 0.201, 0.16, 0.152, 0.166, 0.479, 0.135, 0.196 s⁻¹ [lines of one column]; the kon was 3.6e+06 M⁻¹ s⁻¹, 632000 M⁻¹ s⁻¹, 442000 M⁻¹ s⁻¹, 587000 M⁻¹ s⁻¹, 386000 M⁻¹ s⁻¹, 391000 M⁻¹ s⁻¹, 265000 M⁻¹ s⁻¹, 310000 M⁻¹ s⁻¹, 269000 M⁻¹ s⁻¹, 780000 M⁻¹ s⁻¹, 290000 M⁻¹ s⁻¹, 173000 M⁻¹ s⁻¹ [lines of one column].
